# The supplement of paper PMC8728848
# The other results are listed elsewhere or left out.
# B1: FaeGab (Escherichia coli) (protein)
# chain: WMTGDFNGSVDIGGSITADDYRQKWEWKVGTGLNGFGNVLNDLTNGGTKLTITVTGNKPILLGRTKEAFATPVSGGVDGIPQIAFTDYEGASVKLRNTDGETNKGLAYFVLPMKNAEGTKVGSVKVNASYAGVFGKGGVTSADGELFSLFADGLRAIFYGGLTTTVSGAALTSGSAAAARTELFGSLSRNDILGQIQRVNANITSLVDVAGSYREDMEYTDGTVVSAAYALGIANGQTIEATFNQAVTTSTQWSAPLNVAITYY
# Key:
# Assay in all cases: glycan array binding signal (z-score within array); higher = stronger binding
# Settings in all cases: glycan notation: IUPAC condensed, linker removed
# [1] = molecular target: Gal(b1-4)Glc
# How it was run: (§1)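 The binding signal is a Z-score computed within each array. Data were drawn from 3228 arrays in the Consortium for Functional Glycomics database, restricted to those with a known protein sequence. Scores were averaged over arrays of the same protein sequence at different concentrations or buffers, and over linkers, and negative values can be taken as non-binding.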
# [2] = molecular target: Gal(b1-4)Glc6S
# How it was run: as §1
# [3] = molecular target: Gal(b1-4)GlcNAc
# How it was run: as §1
# [4] = molecular target: Gal(b1-4)GlcNAc(b1-2)Man(a1-3)[Gal(b1-4)GlcNAc(b1-2)Man(a1-6)]Man(b1-4)GlcNAc(b1-4)GlcNAc
# How it was run: as §1
# [5] = molecular target: Gal(b1-4)GlcNAc(b1-3)Gal(b1-4)Glc
# How it was run: as §1
# [6] = molecular target: Gal(b1-4)GlcNAc(b1-3)Gal(b1-4)GlcNAc
# How it was run: as §1
# [7] = molecular target: Gal(b1-4)GlcNAc(b1-3)Gal(b1-4)GlcNAc(b1-3)Gal(b1-4)GlcNAc
# How it was run: as §1
# [8] = molecular target: Gal(b1-4)GlcNAc(b1-3)Gal(b1-4)[Fuc(a1-3)]GlcNAc(b1-3)Gal(b1-4)[Fuc(a1-3)]GlcNAc
# How it was run: as §1
# [9] = molecular target: Gal(b1-4)GlcNAc(b1-3)GalNAc
# How it was run: as §1
# [10] = molecular target: Gal(b1-4)GlcNAc(b1-3)[Gal(b1-4)GlcNAc(b1-6)]GalNAc
# How it was run: as §1
# [11] = molecular target: Gal(b1-4)GlcNAc(b1-6)Gal(b1-4)GlcNAc(b1-6)GalNAc
# How it was run: as §1
# [12] = molecular target: Gal(b1-4)GlcNAc(b1-6)GalNAc
# How it was run: as §1
# [13] = molecular target: Gal(b1-4)GlcNAc(b1-6)[Gal(b1-3)]GalNAc
# How it was run: as §1
# [14] = molecular target: Gal3S(b1-3)GalNAc
# How it was run: as §1
# [15] = molecular target: Gal3S(b1-3)GlcNAc
# How it was run: as §1
# [16] = molecular target: Gal3S(b1-3)[Fuc(a1-4)]GlcNAc
# How it was run: as §1
# [17] = molecular target: Gal3S(b1-4)Glc
# How it was run: as §1
# [18] = molecular target: Gal3S(b1-4)Glc6S
# How it was run: as §1
# [19] = molecular target: Gal3S(b1-4)GlcNAc
# How it was run: as §1
# [20] = molecular target: Gal3S(b1-4)GlcNAc6S
# How it was run: as §1
# [21] = molecular target: Gal3S6S(b1-4)GlcNAc
# How it was run: as §1
# [22] = molecular target: Gal3S6S(b1-4)GlcNAc6S
# How it was run: as §1
# [23] = molecular target: Gal4S(b1-4)GlcNAc
# How it was run: as §1
# [24] = molecular target: Gal4S6S(b1-4)GlcNAc
# How it was run: as §1
# [25] = molecular target: Gal6S(b1-4)Glc
# How it was run: as §1
# [26] = molecular target: Gal6S(b1-4)Glc6S
# How it was run: as §1
# [27] = molecular target: Gal6S(b1-4)GlcNAc
# How it was run: as §1
# [28] = molecular target: GalNAc(a1-3)Gal
# How it was run: as §1
# [29] = molecular target: GalNAc(a1-3)GalNAc
# How it was run: as §1
# [30] = molecular target: GalNAc(b1-3)Gal(a1-4)Gal(b1-4)GlcNAc
# How it was run: as §1
# [31] = molecular target: GalNAc(b1-3)GalNAc
# How it was run: as §1
# [32] = molecular target: GalNAc(b1-4)GlcNAc
# How it was run: as §1
# [33] = molecular target: Glc(a1-4)Glc
# How it was run: as §1
# [34] = molecular target: Glc(a1-6)Glc(a1-6)Glc
# How it was run: as §1
# [35] = molecular target: Glc(b1-4)Glc
# How it was run: as §1
# [36] = molecular target: Glc(b1-6)Glc
# How it was run: as §1
# [37] = molecular target: GlcA(b1-3)Gal
# How it was run: as §1
# [38] = molecular target: GlcA(b1-6)Gal
# How it was run: as §1
binder,measurement,setting,value
B1,glycan array binding signal (z-score),[1],0.501
same,glycan array binding signal (z-score),[2],0.611
same,glycan array binding signal (z-score),[3],-0.221
same,glycan array binding signal (z-score),[4],-0.442
same,glycan array binding signal (z-score),[5],0.653
same,glycan array binding signal (z-score),[6],-0.445
same,glycan array binding signal (z-score),[7],-0.211
same,glycan array binding signal (z-score),[8],-0.369
same,glycan array binding signal (z-score),[9],-0.228
same,glycan array binding signal (z-score),[10],-0.424
same,glycan array binding signal (z-score),[11],-0.222
same,glycan array binding signal (z-score),[12],0.093
same,glycan array binding signal (z-score),[13],0.017
same,glycan array binding signal (z-score),[14],0.165
same,glycan array binding signal (z-score),[15],-0.012
same,glycan array binding signal (z-score),[16],-0.309
same,glycan array binding signal (z-score),[17],-0.054
same,glycan array binding signal (z-score),[18],0.181
same,glycan array binding signal (z-score),[19],-0.212
same,glycan array binding signal (z-score),[20],-0.124
same,glycan array binding signal (z-score),[21],-0.35
same,glycan array binding signal (z-score),[22],-0.119
same,glycan array binding signal (z-score),[23],-0.344
same,glycan array binding signal (z-score),[24],0
same,glycan array binding signal (z-score),[25],-0.008
same,glycan array binding signal (z-score),[26],0.473
same,glycan array binding signal (z-score),[27],-0.201
same,glycan array binding signal (z-score),[28],0.081
same,glycan array binding signal (z-score),[29],0.048
same,glycan array binding signal (z-score),[30],-0.401
same,glycan array binding signal (z-score),[31],0.344
same,glycan array binding signal (z-score),[32],-0.071
same,glycan array binding signal (z-score),[33],8.87
same,glycan array binding signal (z-score),[34],10.2
same,glycan array binding signal (z-score),[35],4.4
same,glycan array binding signal (z-score),[36],0.92
same,glycan array binding signal (z-score),[37],0.833
same,glycan array binding signal (z-score),[38],0.932
